Measured values from patent publication US5747452A, “Method of modulating tumor cell migration using fibronectin type III peptides” (La Jolla Cancer Research Foundation, priority 1995, dated 1998).

Columns and labels:
[1] = test system: fibronectin matrix assembly by IMR-90 cells
[2] = target: T1, P11-Sepharose (Homo sapiens, UniProt P02751, C2342S/C2367S/C2369S/C2379S); assay: Affinity chromatography of III1-E on P11-Sepharose; type: binding; details: 1 ml of 250 μg/ml on 0.5-ml column
T1 construct: made in house; host or cells: chemical synthesis
T1 sequence (P02751 2340-2383 C2342S/C2367S/C2369S/C2379S): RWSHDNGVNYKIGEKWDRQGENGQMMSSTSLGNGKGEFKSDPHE
Experimental: (§1) Polypeptides were coupled to CNBr-activated Sepharose CL-4B according to the manufacturer's recommendations. The concentration of polypeptide was typically 8-10 mg polypeptide/ml of resin. Fibronectin fragments or polypeptides were applied to affinity columns and the flow through fractions were collected.
(§2) For affinity chromatography as used in Example IX, the columns were washed with 10 volumes of PBS. The bound proteins were eluted with 5 column volumes of 8M urea in PBS. The amount of protein eluted from the column was quantitated by measuring the A280 of the solutions.
(§3) In a reciprocal experiment, the III1 -E protein which contains most of the III1 module, was applied to affinity columns made of P11-Sepharose or P12-Sepharose. 1 ml of a 250 μg/ml solution was applied to 0.5-ml columns. […] The results of both affinity chromatography experiments indicate that the P1-binding site is located in the 11th type-I repeat.

[3] = target: T2, P12-Sepharose (Homo sapiens, UniProt P02751, C2386S/C2408S/C2410S/C2412S/C2421S/C2424S); assay: Affinity chromatography of III1-E on P12-Sepharose; type: binding; details: 1 ml of 250 μg/ml on 0.5-ml column
T2 construct: made in house; host or cells: chemical synthesis
T2 sequence (P02751 2384-2425 C2386S/C2408S/C2410S/C2412S/C2421S/C2424S): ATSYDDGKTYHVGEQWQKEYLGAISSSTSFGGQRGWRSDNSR
Experimental: as §1, §2, §3

[4] = Affinity chromatography of III1-E on Sepharose CL-4B control column; type: binding; details: 1 ml of 250 μg/ml on 0.5-ml column
Experimental: as §1, §2, §3

[5] = test system: fibronectin; assay: Protein-protein binding assay: 125I-fibronectin to coated fibronectin; design: species or system human
Experimental: (§4) Protein-protein binding assays were performed on Immulon 2, Removawell strips. Proteins were coated onto wells in 100 mM Na2 CO3, pH 9.5, in a moist chamber at 4° C. over night. Fibronectin was coated at a concentration of approximately 4 μg/ml. The wells were washed three times with PBS followed by blocking with 0.2% bovine serum albumin in PBS (0.2% BSA) at 37° C. for 1 hour. Radiolabeled proteins were added to the wells in 0.2% BSA at 5 μCi/ml. Proteins were allowed to bind for 24 hours at 37° C., then the wells were washed four times with 0.2% BSA, the wells were removed and the bound ^125 I radioisotope was measured.
(§5) All of the data represent specific binding, which is defined as binding to fibronectin minus binding to control wells coated with only 2% BSA. […] Binding data were analyzed by using the program LIGAND according to Munson et al., Anal. Biochem. 107, 220 (1980).
(§6) Fibronectin was coated onto plastic wells in concentrations ranging from 0-100 μg/ml, blocked with BSA, then the wells were probed with ^125 I-labeled 14 kDa fragment (FIG. 5, panel A) or ^125 I-labeled fibronectin (FIG. 5, panel B) for 2 hours at 37° C. The amount of radioiodinated protein bound was measured after washing extensively with 0.2% BSA in PBS. Each data point is the average of duplicate determinations.
The ability of the 14 kDa fragment to compete for fibronectin-fibronectin binding was then tested as follows. […] The solutions were incubated for 2 hours at 37° C., followed by extensive washing with 0.2% BSA in PBS, and measurement of the radioactivity bound to the wells. […]
Four polypeptides (of 30-34 amino acids each) were synthesized, representing the region of fibronectin encompassed by the 14 kDa fragment (polypeptides P1, P2, P3, and P4). […] The solutions were incubated for 2 hours at 37° C., followed by extensive washing with 0.2% BSA in PBS, and measurement of the radioactivity bound to the wells. […]
The binding data from the experiment shown in FIG. 16 was analyzed with the aid of the program LIGAND.

[6] = test system: fibronectin; assay: In vitro cross-linking assay of 125I-fibronectin; type: biochemical, human
Experimental: In vitro cross-linking assays were performed by adding various concentrations of either QE-C or FN 10 proteins to solutions of 5 μCi/ml ^125 I-fibronectin in 2% bovine serum albumin in PBS. The FN 10 protein is a negative control protein produced in the pGEX-2T system, which encompasses the 10th type III repeat of fibronectin, and has no effect in fibronectin-fibronectin binding assays. The solutions were incubated at 37° C. for 20 hours, then samples were collected in SDS-PAGE sample buffer either with or without 1% 2-mercaptoethanol, in order to analyze the ^125 I-fibronectin both under reducing and non-reducing conditions. After SDS-PAGE, the gels were dried and exposed to x-ray film to visualize the fibronectin bands. The fibronectin dimer migrates as a band of approximately 450,000 Daltons on a non-reduced gel. On a reduced gel fibronectin runs as a monomer at approximately 250,000 Daltons. Fibronectin from the matrix is disulfide cross-linked into high molecular weight (HMW) aggregates that typically run above 1,000,000 Daltons on a non-reducing gel, and these HMW aggregates run at the same location as monomeric fibronectin on a reducing gel. The extend of in vitro disulfide cross-linking was determined by quantitating the amount of ^125 I-fibronectin migrating as HMW aggregates vs. the total amount added to the lane. […]

[7] = test system: fibronectin; assay: Protein-protein binding assay: 125I-14 kDa fragment to coated fibronectin; design: species or system human; details: unlabeled competitor, 5 μg/ml fibronectin coat, 2 hours
Experimental: as §4, §5
as §6, with “determinations. […]” for “determinations.”

[8] = test system: IMR-90 cells; assay: Matrix assembly assay, 1 hour: binding of 125I-fibronectin to cell surfaces; type: cell-based, human; details: 1 hour labeling

Compound: CC[C@H](C)[C@H](NC(=O)[C@H](Cc1ccc(O)cc1)NC(=O)[C@H](CCCCN)NC(=O)[C@H](CO)NC(=O)[C@@H](NC(=O)[C@H](Cc1c[nH]cn1)NC(=O)[C@H](CO)NC(=O)[C@@H]1CCCN1C(=O)[C@H](CCC(N)=O)NC(=O)[C@@H]1CCCN1C(=O)[C@H](C)NC(=O)[C@@H](N)CC(N)=O)[C@@H](C)CC)C(=O)N[C@@H](CC(C)C)C(=O)N[C@@H](CCCNC(=N)N)C(=O)N[C@@H](Cc1c[nH]c2ccccc12)C(=O)N[C@@H](CCCNC(=N)N)C(=O)N1CCC[C@H]1C(=O)N[C@@H](CCCCN)C(=O)N[C@@H](CC(N)=O)C(=O)N[C@@H](CO)C(=O)N[C@H](C(=O)NCC(=O)N[C@@H](CCCNC(=N)N)C(=O)N[C@@H](Cc1c[nH]c2ccccc12)C(=O)N[C@@H](CCCCN)C(=O)N[C@@H](CCC(=O)O)C(=O)N[C@@H](C)C(=O)N[C@H](C(=O)N[C@H](C(=O)N1CCC[C@H]1C(=O)NCC(=O)O)[C@@H](C)CC)[C@@H](C)O)C(C)C [Polypeptide P1, NAPQPSHISKYILRWRPKNSVGRWKEATIPG]
- reduction of fibronectin matrix formation / incorporation into extracellular matrix [1]: ≥ 80%

Compound: III1 -E: Sequence ID No. 12; recombinant protein, residues 600 to 655 of human fibronectin, from pGEX-2T
- protein added to the column that bound to P11-Sepharose [2]: Approximately 25%
- protein added to the column that bound to P12-Sepharose [3]: 4.8%
- protein added to the column that bound to Sepharose CL-4B control [4]: 2.3%
- concentration dependence of effect on fibronectin-fibronectin binding (biphasic) ([5]; 24 hours at 37° C.): inhibit the binding at low concentrations, yet enhance binding at higher concentrations

Compound: QE-C: Sequence ID No. 13; recombinant protein, residues 600-674 of human fibronectin, from pQE-12, His-tagged
- fibronectin in the sample present in HMW aggregates ([6]; 10 μM): approximately 20%
- effect on fibronectin disulfide cross-linking (HMW aggregates) ([6]; 37° C. for 20 hours, absence of cells): dramatic induction of disulfide cross-linking

Compound: fibronectin
- competition for binding of 125I-14 kDa fragment to fibronectin [7]: did not compete
- effect on fibronectin-fibronectin binding [5]: did not compete
- binding of labeled protein to fibronectin coated on plastic ([5]; fibronectin coated 0-100 μg/ml, 2 hours at 37° C.): dose dependent manner
- inhibition of binding of 125I-fibronectin to cells [8]: completely inhibited
